Some of the results follow. At the low end of the ranking the order means little.

The target of this assay is T1, ETS1 (UniProt P14921).
T1 sequence: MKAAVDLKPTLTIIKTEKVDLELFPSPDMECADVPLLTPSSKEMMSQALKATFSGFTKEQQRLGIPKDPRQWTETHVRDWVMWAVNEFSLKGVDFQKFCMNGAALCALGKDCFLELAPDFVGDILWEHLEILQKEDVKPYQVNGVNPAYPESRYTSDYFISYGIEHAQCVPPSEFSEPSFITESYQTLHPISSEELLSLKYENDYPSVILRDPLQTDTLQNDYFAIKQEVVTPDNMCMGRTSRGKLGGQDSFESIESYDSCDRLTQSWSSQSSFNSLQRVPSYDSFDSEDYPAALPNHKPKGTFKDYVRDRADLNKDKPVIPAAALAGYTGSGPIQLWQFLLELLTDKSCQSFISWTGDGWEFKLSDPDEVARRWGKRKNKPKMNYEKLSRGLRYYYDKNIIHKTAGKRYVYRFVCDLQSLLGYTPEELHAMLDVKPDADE
Kind of assay: custom PBM. The conditions noted are these: custom protein-binding microarray; buffer, salt, pH and temperature not stated; high values mean tight binding; double strand, one strand shown.
As for “GCTGCTGCGGTGCATACCCCACCGGTTGTGACCCCGGTCTTGATTCGCTTGACGCTGCTG”, the binding signal (log fluorescence intensity) amounted to 8.34. In the case of “CAGCATAGGACTTCTTCCCTGAAGCAATGGATAACCGTCTTGATTCGCTTGACGCTGCTG”, the binding signal (log fluorescence intensity) is 8.19.

“TAAAGGGAAGACGGTTGTGGTGGTTCCGGGTATTAAGTCTTGATTCGCTTGACGCTGCTG”: the binding signal (log fluorescence intensity) stood at 8.48.

In the case of “CACAATTTTTACAGTAATGTAGCACGCGTGACTCCTGTCTTGATTCGCTTGACGCTGCTG”, the binding signal (log fluorescence intensity) came out at 8.55. The value for “GCTGCTGCGGTGCATACCCCACCGGATGTAACCCCGGTCTTGATTCGCTTGACGCTGCTG” was 10; that for “GTGTATAGGATCCCATCCAACAAACGTGTTAAAATGGTCTTGATTCGCTTGACGCTGCTG” was 8.24; that for “GTGTATAGGATCCCATCCAACACACGTGTTAAAAGGGTCTTGATTCGCTTGACGCTGCTG” was 8.24. Consider “TCCGGCTGCCAGCTCCACCCACTTCAGGCCTTGTAGGTCTTGATTCGCTTGACGCTGCTG”, for which the binding signal (log fluorescence intensity) was determined as 8.34.

In the case of “CGGAAGTGTCGTAAACGTCGGATATACGGTTCTTCTGTCTTGATTCGCTTGACGCTGCTG”, the binding signal (log fluorescence intensity) amounted to 9.21.

For the sequence “TAAAGGGAAGACGGTTGTGGTAGTTACGGGTATTAAGTCTTGATTCGCTTGACGCTGCTG”, the binding signal (log fluorescence intensity) was determined as 8.37. In the case of “GATTAAATTCTGCCCTTATTCGCACGTGCCATAACAGTCTTGATTCGCTTGACGCTGCTG”, the binding signal (log fluorescence intensity) was 8.29. The value for “TACTGACTTATATATGCGAATGCACATGAATAGACGGTCTTGATTCGCTTGACGCTGCTG” was 8.24; that for “CAGCATAGGACTTCTTCCCTGAAGCAATTGATAACGGTCTTGATTCGCTTGACGCTGCTG” was 8.34; that for “CGGAAATGTCGTAAACGTCGGATATCCGGTTCTTCTGTCTTGATTCGCTTGACGCTGCTG” was 12.1. With “CACAATTTTTACAGTAATGTAGCACGCGTAACTCCTGTCTTGATTCGCTTGACGCTGCTG”, the binding signal (log fluorescence intensity) amounted to 8.15. The value for “GGAAAAAGGCCCAGGGTAACACCGGAAGCGGGCTTAGTCTTGATTCGCTTGACGCTGCTG” was 10.8; that for “GTGTAAAGGATCCCATCCAACACACGTGTTAAAATGGTCTTGATTCGCTTGACGCTGCTG” was 8.15. The same measure for “GGTAAAAGGCCCAGGGTAACACCGGAAGTGGGCTTAGTCTTGATTCGCTTGACGCTGCTG”: 11.9; for “CAGCATAAGACTTCTTCCCTGAAGCAATTGATAACCGTCTTGATTCGCTTGACGCTGCTG”: 8.27. For the sequence “GGAAAAAGGTCCAGGGTAACACCGGAAGTGGGCTTAGTCTTGATTCGCTTGACGCTGCTG”, the binding signal (log fluorescence intensity) was determined as 12.

With “TACTGACTTATATATGCGAATCCACATGAATAGACCGTCTTGATTCGCTTGACGCTGCTG”, the binding signal (log fluorescence intensity) is 8.2. The same measure for “CGGAGGTGTCGTAAACGTCGGATATCCGGTTCTTCTGTCTTGATTCGCTTGACGCTGCTG”: 11.7; for “CGGAAGTGTCGTAGACGTCGGATATCCGGTTCTTCTGTCTTGATTCGCTTGACGCTGCTG”: 11.7; for “CACTGACTTATATATGCGAATGCACATGAATAGACCGTCTTGATTCGCTTGACGCTGCTG”: 8.35. The value for “TAGTGACTTATATATGCGAATGCACATGAATAGACCGTCTTGATTCGCTTGACGCTGCTG” was 8.36; that for “TAAAGGGAAGACGGTTGTGATAGTTCCGGGTATTAAGTCTTGATTCGCTTGACGCTGCTG” was 8.58; that for “CCCAATTTTTACAGTAATGTAGCACGCGTAACTCCTGTCTTGATTCGCTTGACGCTGCTG” was 8.1. In the case of “GCTGCTGCGGAGCATACCCCACCGGATGTGACCCCGGTCTTGATTCGCTTGACGCTGCTG”, the binding signal (log fluorescence intensity) came to 10.2. The same measure for “GATTAATTTCTGCCCTTATTCGCACGTGCCATAACCGTCTTGATTCGCTTGACGCTGCTG”: 8.22. The value for “TAAAGGGAAGACGGTTGTGGTAGTTTCGGGTATTAAGTCTTGATTCGCTTGACGCTGCTG” was 8.03; that for “TAAAGGGAAGACGGTTGTGGTAGTTCCGGGCATTAAGTCTTGATTCGCTTGACGCTGCTG” was 8.59; that for “TACTGACTTATATATGCGAATGCACATAAATAGACCGTCTTGATTCGCTTGACGCTGCTG” was 8.11. “TACTGAGTTATATATGCGAATGCACATGAATAGACCGTCTTGATTCGCTTGACGCTGCTG”: the binding signal (log fluorescence intensity) was 8.26. The value for “TGTCGGGTATGGGAATGTAGATCACGTGAATGAAAAGTCTTGATTCGCTTGACGCTGCTG” was 8.09; that for “GATTAATTTCTGCCCTTATTCGCACGTGCCGTAACAGTCTTGATTCGCTTGACGCTGCTG” was 8.34; that for “TGTCGGCTAAGGGAATGTAGATCACGTGAATGAAAAGTCTTGATTCGCTTGACGCTGCTG” was 8.31. As for “GTGTATAGGATCCCATCCAACACACGTGTTAAATTGGTCTTGATTCGCTTGACGCTGCTG”, the binding signal (log fluorescence intensity) was determined as 8.29. On to “GTGTATAGGATCCCATCCAACACAGGTGTTAAAATGGTCTTGATTCGCTTGACGCTGCTG”, for which the binding signal (log fluorescence intensity) was 8.15. The value for “TCCGGCTACCAGCTCCACCCACTTTAGGCCTTGTAGGTCTTGATTCGCTTGACGCTGCTG” was 8.2; that for “CGGAAGTGTGGTAAACGTCGGATATCCGGTTCTTCTGTCTTGATTCGCTTGACGCTGCTG” was 11.5.

In the case of “CTGGGACTTGACGCAACTCTGCCACGTGGGTCGTTTGTCTTGATTCGCTTGACGCTGCTG”, the binding signal (log fluorescence intensity) came to 8.25.

Values taken from paper PMC6602471.
